This is an account of results in US20220162323A1.

The experiment addresses FGFR2c on NCI-H716 cells (human), P21802. Nature of the experiment: cell-based or functional assay.

Where only a bound is given, the exact number is not on record here.

Sequence of FGFR2c on NCI-H716 cells (human), P21802 (P21802 22-821): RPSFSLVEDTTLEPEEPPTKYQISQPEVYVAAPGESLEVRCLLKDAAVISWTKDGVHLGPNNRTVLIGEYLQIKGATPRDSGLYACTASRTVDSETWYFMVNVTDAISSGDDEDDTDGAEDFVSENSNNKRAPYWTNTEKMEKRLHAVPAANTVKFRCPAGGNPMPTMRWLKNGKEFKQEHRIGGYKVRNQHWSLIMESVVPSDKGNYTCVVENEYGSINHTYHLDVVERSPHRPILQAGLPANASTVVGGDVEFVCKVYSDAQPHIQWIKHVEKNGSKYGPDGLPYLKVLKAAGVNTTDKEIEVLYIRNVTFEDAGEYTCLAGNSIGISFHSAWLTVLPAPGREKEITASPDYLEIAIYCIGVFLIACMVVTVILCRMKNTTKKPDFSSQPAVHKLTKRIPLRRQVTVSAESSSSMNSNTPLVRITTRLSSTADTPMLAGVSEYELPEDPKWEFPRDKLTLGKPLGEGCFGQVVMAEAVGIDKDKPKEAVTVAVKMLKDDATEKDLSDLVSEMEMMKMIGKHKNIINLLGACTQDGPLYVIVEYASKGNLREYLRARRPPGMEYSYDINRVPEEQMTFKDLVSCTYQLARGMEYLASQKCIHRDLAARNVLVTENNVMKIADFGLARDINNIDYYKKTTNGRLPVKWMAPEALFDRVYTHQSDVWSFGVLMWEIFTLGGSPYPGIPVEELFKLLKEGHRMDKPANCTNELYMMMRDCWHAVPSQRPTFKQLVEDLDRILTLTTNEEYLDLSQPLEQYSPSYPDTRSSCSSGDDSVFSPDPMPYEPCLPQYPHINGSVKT

B1: mAb2-maytansinoid 1ALP (antibody)
heavy: QVQLVESGGGVVQPGKSLRLSCAASGFTFSNYGMHWVRQTPVKGLEWVTLIWYDGSNKYYTDSVKGRFTISRDNSKNTLYLQMNSLRSEDTAVYYCAREGNWNYGHAFDIWGQGTMVTVSSASTKGPSVFPLAPCSRSTSESTAALGCLVKDYFPEPVTVSWNSGALTSGVHTFPAVLQSSGLYSLSSVVTVPSSSLGTKTYTCNVDHKPSNTKVDKRV[human IgG4 Fc with S228P (EU numbers) omitted]
light: DIQMTQSPSTLSASVGDRVTITCRASQNIGNWLAWYQQKPGKAPNLLIYKASTLESGVPSRFSGSGSGTEFTLTISSLQPDDFATYNCQQYNSYSPTFGQGTKLEIKRTVAAPSVFIFPPSDEQLKSGTASVVCLLNNFYPREAKVQWKVDNALQSGNSQESVTEQDSKDSTYSLSSTLTLSKADYEKHKVYACEVTHQGLSSPVTKSFNRGEC
modifications: here or on the partner: maytansinoid 1ALP (mc-VC-PAB-NMe-C3-May) linker-payload conjugated; residues not stated in Example 5; DAR 1.9 per antibody
B1: the IC50 (M), CellTiter-Glo cytotoxicity, NCI-H716 cells, 6 days was greater than 2e-08 M and the Max % Kill, NCI-H716 cells turned out to be 17%.

B2: mAb2-tubulysin 1ALP (antibody)
heavy: B1 heavy
light: B1 light
modifications: here or on the partner: deglycosylated; Q295 carries azido-PEG3-amine clicked to Tubulysin 1A-LP; DAR 2.1 per antibody
The molecule B2 showed an IC50 (M), CellTiter-Glo cytotoxicity, NCI-H716 cells, 6 days greater than 2e-08 M and a Max % Kill, NCI-H716 cells of 30.9%.
